According to patent publication US11618753B2 (priority 2018, dated 2023):

The molecules below were run on MLKL phosphorylation, HT29-L23 human colorectal adenocarcinoma cells (assay: cells). Settings: read-out: pMLKL HCS Cell Assay (IC50, uM).

In order of falling IC50:
1. Nc1ncnn2c(-c3cc(F)cc(C(=O)N[C@@H]4CN(C(=O)C5CCC(F)(F)CC5)C[C@@H]4F)c3)cc(C(F)(F)F)c12 [Example 609, 3-[4-amino-5-(trifluoromethyl)pyrrolo[2,1-f][1,2,4]triazin-7-yl]-N-[(3R,4S)-1-(4,4-difluorocyclohexanecarbonyl)-4-fluoropyrrolidin-3-yl]-5-fluorobenzamide]  0.079 µM
2. CC(C)(C)C(=O)N1C[C@H](F)[C@H](NC(=O)c2cc(F)cc(-c3cc(C(F)(F)F)c4c(N)ncnn34)c2)C1 [Example 604, 3-[4-amino-5-(trifluoromethyl)pyrrolo[2,1-f][1,2,4]triazin-7-yl]-N-[(3R,4S)-1-(2,2-dimethylpropanoyl)-4-fluoropyrrolidin-3-yl]-5-fluorobenzamide]  0.029 µM
3. Nc1ncnn2c(-c3cc(F)cc(C(=O)N[C@@H]4CN(C(=O)c5ccc(F)cc5)C[C@@H]4F)c3)cc(C(F)(F)F)c12 [Example 606, 3-[4-amino-5-(trifluoromethyl)pyrrolo[2,1-f][1,2,4]triazin-7-yl]-5-fluoro-N-[(3R,4S)-4-fluoro-1-(4-fluorobenzoyl)pyrrolidin-3-yl]benzamide]  0.022 µM
4. Nc1ncnn2c(-c3cc(F)cc(C(=O)N[C@@H]4CN(C(=O)C5CC5(F)F)C[C@@H]4F)c3)cc(C(F)(F)F)c12 (stereo partly drawn) [Example 608, 3-[4-amino-5-(trifluoromethyl)pyrrolo[2,1-f][1,2,4]triazin-7-yl]-N-[(3R,4S)-1-(2,2-difluorocyclopropanecarbonyl)-4-fluoropyrrolidin-3-yl]-5-fluorobenzamide]  0.017 µM
5. CC(C)(O)C(=O)N1C[C@H](F)[C@H](NC(=O)c2cc(-c3cc(C(F)(F)F)c4c(N)ncnn34)cc(F)c2CF)C1 [Example 623, 5-[4-amino-5-(trifluoromethyl)pyrrolo[2,1-f][1,2,4]triazin-7-yl]-3-fluoro-N-[(3R,4S)-4-fluoro-1-(2-hydroxy-2-methylpropanoyl)pyrrolidin-3-yl]-2(fluoromethyl)benzamide]  0.01 µM
6. Nc1ncnn2c(-c3cc(F)c(CF)c(C(=O)N[C@@H]4CN(C(=O)CC(F)(F)F)C[C@@H]4F)c3)cc(C(F)(F)F)c12 [Example 624, 5-[4-amino-5-(trifluoromethyl)pyrrolo[2,1-f][1,2,4]triazin-7-yl]-3-fluoro-N-[(3R,4S)-4-fluoro-1-(3,3,3-trifluoropropanoyl)pyrrolidin-3-yl]-2-(fluoromethyl)benzamide]  0.01 µM
7. Nc1ncnn2c(-c3cc(F)cc(C(=O)N[C@@H]4CN(C(=O)C5CCC5)C[C@@H]4F)c3)cc(C(F)(F)F)c12 [Example 605, 3-[4-amino-5-(trifluoromethyl)pyrrolo[2,1-f][1,2,4]triazin-7-yl]-N-[(3R,4S)-1-cyclobutanecarbonyl-4-fluoropyrrolidin-3-yl]-5-fluorobenzamide]  0.0088 µM
8. Nc1ncnn2c(-c3cc(F)cc(C(=O)N[C@@H]4CN(C(=O)c5ccccc5F)C[C@@H]4F)c3)cc(C(F)(F)F)c12 [Example 607, 3-[4-amino-5-(trifluoromethyl)pyrrolo[2,1-f][1,2,4]triazin-7-yl]-5-fluoro-N-[(3R,4S)-4-fluoro-1-(2-fluorobenzoyl)pyrrolidin-3-yl]benzamide]  0.0084 µM
9. Nc1ncnn2c(-c3cc(F)c(CF)c(C(=O)N[C@@H]4CN(C(=O)C5(F)CC5)C[C@@H]4F)c3)cc(C(F)(F)F)c12 [Example 612, 5-[4-amino-5-(trifluoromethyl)pyrrolo[2,1-f][1,2,4]triazin-7-yl]-3-fluoro-N-[(3R,4S)-4-fluoro-1-(1-fluorocyclopropanecarbonyl)pyrrolidin-3-yl]-2-(fluoromethyl)benzamide]  0.0031 µM
10. Nc1ncnn2c(-c3cc(F)c(CF)c(C(=O)N[C@@H]4CN(C(=O)C5CCC(F)(F)CC5)C[C@@H]4F)c3)cc(C(F)(F)F)c12 [Example 619, 5-[4-amino-5-(trifluoromethyl)pyrrolo[2,1-f][1,2,4]triazin-7-yl]-N-[(3R,S5)-1-(4,4-difluorocyclohexanecarbonyl)-4-fluoropyrrolidin-3-yl]-3-fluoro-2-(fluoromethyl)benzamide]  0.0031 µM
11. CC(C)(F)C(=O)N1C[C@H](F)[C@H](NC(=O)c2cc(-c3cc(C(F)(F)F)c4c(N)ncnn34)cc(F)c2CF)C1 [Example 613, 5-[4-amino-5-(trifluoromethyl)pyrrolo[2,1-f][1,2,4]triazin-7-yl]-3-fluoro-N-[(3R,4S)-4-fluoro-1-(2-fluoro-2-methylpropanoyl)pyrrolidin-3-yl]-2-(fluoromethyl)benzamide]  0.0027 µM
12. Nc1ncnn2c(-c3cc(F)c(CF)c(C(=O)N[C@@H]4CN(C(=O)C5CC5(F)F)C[C@@H]4F)c3)cc(C(F)(F)F)c12 (stereo partly drawn) [Example 614, 5-[4-amino-5-(trifluoromethyl)pyrrolo[2,1-f][1,2,4]triazin-7-yl]-N-[(3R,4S)-1-(2,2-difluorocyclopropanecarbonyl)-4-fluoropyrrolidin-3-yl]-3-fluoro-2-(fluoromethyl)benzamide]  0.0026 µM
13. Nc1ncnn2c(-c3cc(F)c(CF)c(C(=O)N[C@@H]4CN(C(=O)C5CC(F)C5)C[C@@H]4F)c3)cc(C(F)(F)F)c12 (stereo partly drawn) [Example 616, 5-(4-amino-5-(trifluoromethyl)pyrrolo[2,1-f][1,2,4]triazin-7-yl)-3-fluoro-N-((3R,4S)-4-fluoro-1-(3-fluorocyclobutane-1-carbonyl)pyrrolidin-3-yl)-2-(fluoromethyl)benzamide]  0.0025 µM
14. C[C@@](O)(C(=O)N1C[C@H](F)[C@H](NC(=O)c2cc(-c3cc(C(F)(F)F)c4c(N)ncnn34)cc(F)c2CF)C1)C(F)(F)F [Example 617, 5-[4-amino-5-(trifluoromethyl)pyrrolo[2,1-f][1,2,4]triazin-7-yl]-3-fluoro-N-[(3R,4S)-4-fluoro-1-[(2R)-3,3,3-trifluoro-2-hydroxy-2-methylpropanoyl]pyrrolidin-3-yl]-2-(fluoromethyl)benzamide]  0.0024 µM
15. Nc1ncnn2c(-c3cc(F)c(CF)c(C(=O)N[C@@H]4CN(C(=O)C5CCC(F)(F)C5)C[C@@H]4F)c3)cc(C(F)(F)F)c12 (stereo partly drawn) [Example 618, 5-[4-amino-5-(trifluoromethyl)pyrrolo[2,1-f][1,2,4]triazin-7-yl]-N-[(3R,4S)-1-(3,3-difluorocyclopentanecarbonyl)-4-fluoropyrrolidin-3-yl]-3-fluoro-2-(fluoromethyl)benzamide]  0.0023 µM
16. CC(CC(=O)N1C[C@H](F)[C@H](NC(=O)c2cc(-c3cc(C(F)(F)F)c4c(N)ncnn34)cc(F)c2CF)C1)C(F)(F)F (stereo partly drawn) [Example 620, 5-[4-amino-5-(trifluoromethyl)pyrrolo[2,1-f][1,2,4]triazin-7-yl]-3-fluoro-N-[(3R,4S)-4-fluoro-1-(4,4,4-trifluoro-3-methylbutanoyl)pyrrolidin-3-yl]-2-(fluoromethyl)benzamide]  0.0018 µM
17. CC(O)(CC(=O)N1C[C@H](F)[C@H](NC(=O)c2cc(-c3cc(C(F)(F)F)c4c(N)ncnn34)cc(F)c2CF)C1)C(F)(F)F (stereo partly drawn) [Example 621, 5-[4-amino-5-(trifluoromethyl)pyrrolo[2,1-f][1,2,4]triazin-7-yl]-3-fluoro-N-[(3R,4S)-4-fluoro-1-(4,4,4-trifluoro-3-hydroxy-3-methylbutanoyl)pyrrolidin-3-yl]-2-(fluoromethyl)benzamide]  0.0016 µM
